In PubChem BioAssay AID651820 (National Center for Advancing Translational Sciences (NCATS), 2012):
In all, about 340,000 compounds went through this assay and about 12,000 (3.5%) were called active. The shares of active, inactive and inconclusive entries below differ from those in the screen. The call rests on the fitted dose curve; in most records, active means well fitted inhibition curve with a large enough effect; inconclusive means small, poorly fitted or top-dose-only effect, or another doubt; inactive means no such curve, though single readings can be large or run the other way. Potencies of inconclusive entries are left out as doubtful fits. More than one record can exist for a structure, and the calls need not agree.

Assay: qHTS Assay for Inhibitors of Hepatitis C Virus (HCV)
Settings: Huh7.5.1 HCVcc-Cre (HCVcc is cell-culture hepatitis C virus) infection, luciferase reporter, 44 h; activity change, negative = inhibition: at 41.8 µM (top of the series) unless noted
How it was run: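 A cell-based infection assay in which seeded cells (1,000 per well) receive test compound after 4 h, are inoculated with HCVcc-Cre at approximately 0.5 moi, and are incubated 44 h before luminescence detection.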
On the % scale 0 is the no-effect control and ±100 the full control effect; potency means the concentration at half of the fitted maximal effect; tags describe the fitted curve by direction and shape.

| Compound | Potency | activity change, negative = inhibition |
| --- | --- | --- |
| CCN(CC)CC(=O)Nc1sc(C)cc1C(=O)c1ccc(C)cc1 | inconclusive [inhibitor, full curve] | – |
| COc1ccc(CNC(=O)c2nc(S(=O)(=O)Cc3ccccc3)ncc2Cl)cc1 | inconclusive [inhibitor, single point] | – |
| CCN(CC)S(=O)(=O)c1ccc2c(c1)c(=O)c(C(=O)NCc1ccc3c(c1)OCO3)cn2C | – | inactive: 1.3% [at 0.335 µM] |
| COc1ccccc1N(C)S(=O)(=O)c1ccc(C(=O)Nc2cccc(Br)c2)cc1 | active: 12.6 µM | – |
| O=S(=O)(NCc1ccccc1)NCc1ccccc1 | inactive | – |
| CC(C)(C)c1cc(C(=O)NN)n(Cc2ccc(Cl)cc2Cl)n1 | inconclusive [inhibitor, single point] | – |
| COc1ccc2[nH]c(=O)c(CN(CCCN(C)C)C(=O)Nc3ccc(F)cc3)cc2c1 | inconclusive [inhibitor, single point] | – |
| O=C(Nc1ccccc1OCc1ccccc1)c1ccccc1Br | active: 11.2 µM | – |
| Cc1cccc(N2CCN(C(=O)CCCCCn3c(=S)[nH]c4ccc(N5CCOCC5)cc4c3=O)CC2)c1C | inconclusive [inhibitor, single point] | – |
| COc1ccccc1NC(=O)Nc1nc(C(C)(C)C)cs1 | inconclusive [inhibitor, partial curve] | – |
| C/C(=N\NC(=O)c1ccc(Cl)c(Cl)c1)c1ccccn1 | active: 0.562 µM | – |
| Nc1cc2[nH]c(=O)c3ccccc3c2cc1[N+](=O)[O-] | inconclusive [inhibitor, single point] | – |
| COc1ccc(C(=O)CN2CC(C)SC2=Nc2ccc(Cl)cc2)cc1 (stereo unspecified) | inconclusive [inhibitor, single point] | – |
| COc1ccc(/C=C(/NC(=O)c2ccco2)C(=O)N2CCOCC2)cc1 | inactive | – |
| NCCCS(=O)(=O)O | active: 5.62 µM | – |
| CCCN(CC(=O)Nc1ccc(F)c(F)c1F)C(=O)c1ccc(=O)n(Cc2ccccc2)n1 | inconclusive [inhibitor, single point] | – |
| COc1cc(CNCC(C)C)c(Br)cc1OCC(=O)NCc1ccccc1 | inconclusive [inhibitor, partial curve] | – |
| COc1ccc([N+](=O)[O-])cc1NC(=O)Cc1ccc(Cl)cc1 | active: 8.91 µM | – |
| CCCCC(=O)Nc1nn(CCC)c2nc3ccccc3cc12 | inconclusive [inhibitor, single point] | – |
| CCOc1cccc(Nc2ccc([N+](=O)[O-])cn2)c1 | inconclusive [inhibitor, partial curve] | – |
| Cc1ccc2c(c1)NC(=O)CC(c1ccccc1)=N2 | active: 3.16 µM | – |
| O=C(Nc1ccccc1O)c1cccc(S(=O)(=O)Nc2ccccc2O)c1 | inactive | – |
| O=C(NCCc1ccc(O)c(O)c1)C1COc2ccccc2O1 (stereo unspecified) | inconclusive [inhibitor, partial curve] | – |

| Compound | Potency | activity change, negative = inhibition |
| --- | --- | --- |
| Oc1ccc2oc3c(c2c1C=NCc1ccncc1)CCCC3 | inactive | – |
| CCn1c2ccccc2c2cc(NC(=O)COc3ccc(OC)cc3)ccc21 | inconclusive [inhibitor, full curve] | – |
| Cc1onc(-c2ccccc2Cl)c1C(=O)OCC(=O)Nc1ccc2c(c1)OCO2 | inconclusive [inhibitor, full curve] | – |
| CCOC(=O)n1cc(-c2cnc(CNC(=O)C(C)(c3ccccc3)c3ccccc3)o2)c2ccccc21 | inconclusive [inhibitor, single point] | – |
| Cc1ccn2c(Nc3ccc4c(c3)OCO4)c(-c3ccccn3)nc2c1 | inconclusive [inhibitor, partial curve] | – |
| Cc1cc(NC(=O)CSc2nc(-c3ccc(F)cc3)cs2)no1 | inconclusive [inhibitor, full curve] | – |
| COc1ccc(N2CCN(CC(=O)Nc3ccccc3SC)CC2)cc1 | inconclusive [inhibitor, partial curve] | – |
| CCCNCc1cc(OCC)c(OCC(=O)Nc2ccccc2)cc1Br | inconclusive [inhibitor, full curve, poor fit] | – |
| Cc1ccc(NC2=NC3(CCCCC3)N=C(N)N2)c(C)c1 | inactive | – |
| CCOCCCNS(=O)(=O)c1ccc(NC(=O)Cc2c(F)cccc2Cl)cc1 | inactive | – |
| COc1cccc(CN2CCNC(=O)C2CC(=O)NC2CCOCC2)c1OC (stereo unspecified) | inconclusive [inhibitor, single point] | – |
| CCCc1cc(=O)oc2c(C)c(OCC(=O)N3C[C@H]4C[C@@H](C3)c3cccc(=O)n3C4)ccc12 | inconclusive [inhibitor, single point] | – |
| O=C(Nc1cccc(S(=O)(=O)NCc2ccco2)c1)c1cc(-c2ccccc2)nc2ccccc12 | inconclusive [inhibitor, single point] | – |
| C/C=C/C=[N+](\[O-])C(C)/C(=N/O)c1ccc(F)cc1 (stereo unspecified) | inactive | – |
| COc1ccc(OC)c(NC(=O)CSc2nnc(CCCO)n2-c2ccccc2)c1 | inconclusive [inhibitor, full curve, poor fit] | – |
| COc1ccc(C2CC(c3cccs3)=NN2C(=O)CCC(=O)O)cc1OC (stereo unspecified) | inactive | – |
| CCCCN(CC)CCNC(=O)c1ccc2c(Cl)c3c(nc2c1)CCC3 | inconclusive [inhibitor, partial curve] | – |
| CCOC(=O)c1oc2c(c1C)C(=O)CCC2 | inactive | – |
| Cc1ccc(C(=O)Nc2cc(C(F)(F)F)ccc2-n2cncn2)o1 | inconclusive [inhibitor, single point] | – |
| NC(=O)C1=C[C@H](C2CCCCC2)C[C@H](OCc2ccc(CO)cc2)O1 | inactive | – |
| Cc1ccc(C(C)C)c(OCC(O)CN(C)Cc2ccccc2)c1 (stereo unspecified) | inconclusive [inhibitor, single point] | – |
| C=CCOc1cccc(C2C(C(=O)c3ccc(C)o3)=C(O)C(=O)N2CCCn2ccnc2)c1 (stereo unspecified) | inactive | – |
| O=C(Oc1c(Cl)cc(Cl)c2ccccc12)N1CCCCC1 | inconclusive [inhibitor, single point] | – |
